Reference: the supplement of paper PMC6657886

Columns and labels:
Assay in all cases: Agar dilution on enriched GC agar; resistance determinants by microarray.
[1] = compound: CC1(C)S[C@@H]2[C@H](NC(=O)Cc3ccccc3)C(=O)N2[C@H]1C(=O)O [benzylpenicillin]
[2] = compound: CO/N=C(\C(=O)N[C@@H]1C(=O)N2C(C(=O)O)=C(CSc3nc(=O)c(O)nn3C)CS[C@H]12)c1csc(N)n1 [ceftriaxone]
[3] = compound: CN[C@@H]1[C@H](O)[C@H](NC)[C@H]2O[C@@]3(O)C(=O)C[C@@H](C)O[C@H]3O[C@@H]2[C@H]1O [spectinomycin]
[4] = compound: CC[C@H]1OC(=O)[C@H](C)[C@@H](O[C@H]2C[C@@](C)(OC)[C@@H](O)[C@H](C)O2)[C@H](C)[C@@H](O[C@@H]2O[C@H](C)C[C@H](N(C)C)[C@H]2O)[C@](C)(O)C[C@@H](C)CN(C)[C@H](C)[C@@H](O)[C@]1(C)O [azithromycin]
[5] = compound: CN(C)[C@@H]1C(O)=C(C(N)=O)C(=O)[C@@]2(O)C(O)=C3C(=O)c4c(O)cccc4[C@@](C)(O)[C@H]3C[C@@H]12 [tetracycline]

Test System: Neisseria gonorrhoeae isolate 378 (blaTEM plasmid: no, gyrA: Phe91, Asn95, mtrR promoter: -35delA, parC: Arg87, Glu91, penA: ins345Asp, ponA: Pro421, porB: wild type, rpsJ: Met57, tetM plasmid: no)
- MIC [1]: 0.5 µg/mL
- MIC [2]: 0.015 µg/mL
- MIC [3]: 32 µg/mL
- MIC [4]: 0.25 µg/mL
- MIC [5]: 1 µg/mL

Test System: Neisseria gonorrhoeae isolate 453 (blaTEM plasmid: no, gyrA: Thr91, Gly95, mtrR promoter: wild type, parC: wild type, penA: ins345Asp, ponA: wild type, porB: wild type, rpsJ: wild type, tetM plasmid: no)
- MIC [1]: 0.25 µg/mL
- MIC [2]: ≤ 0.002 µg/mL
- MIC [3]: 32 µg/mL
- MIC [4]: 0.06 µg/mL
- MIC [5]: 0.12 µg/mL

Test System: Neisseria gonorrhoeae isolate 135 (blaTEM plasmid: no, gyrA: Phe91, Asn95, mtrR promoter: -35delA, parC: Ser87, Gly91, penA: ins345Asp, ponA: Pro421, porB: wild type, rpsJ: Met57, tetM plasmid: no)
- MIC [1]: 0.25 µg/mL
- MIC [2]: ≤ 0.002 µg/mL
- MIC [3]: 16 µg/mL
- MIC [4]: 0.06 µg/mL
- MIC [5]: 0.25 µg/mL

Test System: Neisseria gonorrhoeae isolate 200 (blaTEM plasmid: no, gyrA: wild type, mtrR promoter: wild type, parC: wild type, penA: ins345Asp, ponA: Pro421, porB: wild type, rpsJ: Met57, tetM plasmid: no)
- MIC [1]: 0.06 µg/mL
- MIC [2]: ≤ 0.002 µg/mL
- MIC [3]: 8 µg/mL
- MIC [4]: 0.12 µg/mL
- MIC [5]: 0.5 µg/mL

Test System: Neisseria gonorrhoeae isolate 312 (blaTEM plasmid: no, gyrA: wild type, mtrR promoter: wild type, parC: wild type, penA: ins345Asp, ponA: wild type, porB: wild type, rpsJ: wild type, tetM plasmid: no)
- MIC [1]: 0.12 µg/mL
- MIC [2]: ≤ 0.002 µg/mL
- MIC [3]: 32 µg/mL
- MIC [4]: 0.008 µg/mL
- MIC [5]: 0.12 µg/mL

Test System: Neisseria gonorrhoeae isolate 487 (blaTEM plasmid: no, gyrA: wild type, mtrR promoter: wild type, parC: wild type, penA: wild type, ponA: wild type, porB: wild type, rpsJ: wild type, tetM plasmid: no)
- MIC [1]: ≤ 0.015 µg/mL
- MIC [2]: ≤ 0.002 µg/mL
- MIC [3]: 32 µg/mL
- MIC [4]: 0.12 µg/mL
- MIC [5]: 0.25 µg/mL

Test System: Neisseria gonorrhoeae isolate 375 (blaTEM plasmid: no, gyrA: wild type, mtrR promoter: wild type, parC: wild type, penA: wild type, ponA: wild type, porB: wild type, rpsJ: wild type, tetM plasmid: no)
- MIC [1]: ≤ 0.015 µg/mL
- MIC [2]: ≤ 0.002 µg/mL
- MIC [3]: 32 µg/mL
- MIC [4]: 0.12 µg/mL
- MIC [5]: 0.5 µg/mL

Test System: Neisseria gonorrhoeae isolate 129 (blaTEM plasmid: no, gyrA: wild type, mtrR promoter: wild type, parC: wild type, penA: ins345Asp, ponA: wild type, porB: wild type, rpsJ: Met57, tetM plasmid: no)
- MIC [1]: 0.03 µg/mL
- MIC [2]: ≤ 0.002 µg/mL
- MIC [3]: 8 µg/mL
- MIC [4]: 0.06 µg/mL
- MIC [5]: 1 µg/mL

Test System: Neisseria gonorrhoeae isolate 191 (blaTEM plasmid: no, gyrA: wild type, mtrR promoter: wild type, parC: wild type, penA: ins345Asp, ponA: wild type, porB: wild type, rpsJ: wild type, tetM plasmid: no)
- MIC [1]: ≤ 0.015 µg/mL
- MIC [2]: ≤ 0.002 µg/mL
- MIC [3]: 8 µg/mL
- MIC [4]: 0.015 µg/mL
- MIC [5]: 0.06 µg/mL

Test System: Neisseria gonorrhoeae isolate 69 (blaTEM plasmid: no, gyrA: wild type, mtrR promoter: wild type, parC: wild type, penA: ins345Asp, ponA: wild type, porB: wild type, rpsJ: wild type, tetM plasmid: no)
- MIC [1]: 0.06 µg/mL
- MIC [2]: 0.008 µg/mL
- MIC [3]: 16 µg/mL
- MIC [4]: 0.03 µg/mL
- MIC [5]: 0.12 µg/mL

Test System: Neisseria gonorrhoeae isolate 437 (blaTEM plasmid: no, gyrA: Thr91, Gly95, mtrR promoter: wild type, parC: wild type, penA: ins345Asp, ponA: wild type, porB: wild type, rpsJ: wild type, tetM plasmid: no)
- MIC [1]: 0.12 µg/mL
- MIC [2]: ≤ 0.002 µg/mL
- MIC [3]: 8 µg/mL
- MIC [4]: 0.06 µg/mL
- MIC [5]: 0.12 µg/mL

Test System: Neisseria gonorrhoeae isolate 163 (blaTEM plasmid: no, gyrA: Phe91, Asn95, mtrR promoter: -35delA, parC: Arg87, Glu91, penA: ins345Asp, ponA: Pro421, porB: wild type, rpsJ: Met57, tetM plasmid: no)
- MIC [1]: 0.5 µg/mL
- MIC [2]: 0.008 µg/mL
- MIC [3]: 16 µg/mL
- MIC [4]: 0.5 µg/mL
- MIC [5]: 1 µg/mL

Test System: Neisseria gonorrhoeae isolate 355 (blaTEM plasmid: no, gyrA: wild type, mtrR promoter: wild type, parC: wild type, penA: ins345Asp, ponA: wild type, porB: wild type, rpsJ: wild type, tetM plasmid: no)
- MIC [1]: 0.06 µg/mL
- MIC [2]: 0.008 µg/mL
- MIC [3]: 16 µg/mL
- MIC [4]: 0.03 µg/mL
- MIC [5]: 0.5 µg/mL

Test System: Neisseria gonorrhoeae isolate 311 (blaTEM plasmid: no, gyrA: Thr91, Gly95, mtrR promoter: wild type, parC: wild type, penA: wild type, ponA: wild type, porB: wild type, rpsJ: wild type, tetM plasmid: no)
- MIC [1]: 0.12 µg/mL
- MIC [2]: 0.004 µg/mL
- MIC [3]: 16 µg/mL
- MIC [4]: 0.06 µg/mL
- MIC [5]: 0.03 µg/mL

Test System: Neisseria gonorrhoeae isolate 510 (blaTEM plasmid: no, gyrA: Phe91, Asn95, mtrR promoter: -35delA, parC: Arg 87, Glu91, penA: ins345Asp, ponA: Pro421, porB: wild type, rpsJ: Met57, tetM plasmid: no)
- MIC [1]: 1 µg/mL
- MIC [2]: 0.015 µg/mL
- MIC [3]: 32 µg/mL
- MIC [4]: 1 µg/mL
- MIC [5]: 1 µg/mL

Test System: Neisseria gonorrhoeae isolate 277 (blaTEM plasmid: no, gyrA: wild type, mtrR promoter: wild type, parC: wild type, penA: ins345Asp, ponA: Pro421, porB: Lys 120, Asp121, rpsJ: wild type, tetM plasmid: no)
- MIC [1]: 0.5 µg/mL
- MIC [2]: 0.008 µg/mL
- MIC [3]: 32 µg/mL
- MIC [4]: 0.5 µg/mL
- MIC [5]: 2 µg/mL

Test System: Neisseria gonorrhoeae isolate 114 (blaTEM plasmid: no, gyrA: Thr91, Gly95, mtrR promoter: wild type, parC: wild type, penA: ins345Asp, ponA: wild type, porB: wild type, rpsJ: wild type, tetM plasmid: no)
- MIC [1]: 0.12 µg/mL
- MIC [2]: ≤ 0.002 µg/mL
- MIC [3]: 16 µg/mL
- MIC [4]: 0.03 µg/mL
- MIC [5]: 0.25 µg/mL

Test System: Neisseria gonorrhoeae isolate 81 (blaTEM plasmid: no, gyrA: Phe91, Gly95, mtrR promoter: wild type, parC: Arg87, Glu91, penA: ins345Asp, ponA: Pro421, porB: wild type, rpsJ: Met57, tetM plasmid: no)
- MIC [1]: 0.12 µg/mL
- MIC [2]: 0.06 µg/mL
- MIC [3]: 32 µg/mL
- MIC [4]: 0.004 µg/mL
- MIC [5]: 0.5 µg/mL

Test System: Neisseria gonorrhoeae isolate 329 (blaTEM plasmid: no, gyrA: wild type, mtrR promoter: wild type, parC: wild type, penA: wild type, ponA: wild type, porB: wild type, rpsJ: wild type, tetM plasmid: no)
- MIC [1]: ≤ 0.015 µg/mL
- MIC [2]: ≤ 0.002 µg/mL
- MIC [3]: 8 µg/mL
- MIC [4]: 0.12 µg/mL
- MIC [5]: 0.25 µg/mL

Test System: Neisseria gonorrhoeae isolate 320 (blaTEM plasmid: no, gyrA: wild type, mtrR promoter: wild type, parC: wild type, penA: ins345Asp, ponA: wild type, porB: wild type, rpsJ: Met57, tetM plasmid: no)
- MIC [1]: 0.03 µg/mL
- MIC [2]: ≤ 0.002 µg/mL
- MIC [3]: 16 µg/mL
- MIC [4]: 0.06 µg/mL
- MIC [5]: 0.5 µg/mL

Test System: Neisseria gonorrhoeae isolate 466 (blaTEM plasmid: no, gyrA: wild type, mtrR promoter: wild type, parC: wild type, penA: wild type, ponA: wild type, porB: wild type, rpsJ: wild type, tetM plasmid: no)
- MIC [1]: ≤ 0.015 µg/mL
- MIC [2]: ≤ 0.002 µg/mL
- MIC [3]: 16 µg/mL
- MIC [4]: 0.06 µg/mL
- MIC [5]: 0.12 µg/mL

Test System: Neisseria gonorrhoeae isolate 240 (blaTEM plasmid: no, gyrA: Phe91, Asn 95, mtrR promoter: wild type, parC: wild type, penA: ins345Asp, ponA: Pro421, porB: Asp120, Gly121, rpsJ: Met57, tetM plasmid: yes)
- MIC [1]: 0.06 µg/mL
- MIC [2]: ≤ 0.002 µg/mL
- MIC [3]: 16 µg/mL
- MIC [4]: 0.03 µg/mL
- MIC [5]: 4 µg/mL

Test System: Neisseria gonorrhoeae isolate 131 (blaTEM plasmid: no, gyrA: Phe91, Gly95, mtrR promoter: wild type, parC: Arg87, Glu91, penA: ins345Asp, ponA: Pro421, porB: Asp120, Ala121, rpsJ: Met57, tetM plasmid: no)
- MIC [1]: 0.25 µg/mL
- MIC [2]: 0.004 µg/mL
- MIC [3]: 32 µg/mL
- MIC [4]: 0.015 µg/mL
- MIC [5]: 0.5 µg/mL

Test System: Neisseria gonorrhoeae isolate 113 (blaTEM plasmid: no, gyrA: wild type, mtrR promoter: wild type, parC: wild type, penA: wild type, ponA: wild type, porB: wild type, rpsJ: wild type, tetM plasmid: no)
- MIC [1]: 0.03 µg/mL
- MIC [2]: ≤ 0.002 µg/mL
- MIC [3]: 32 µg/mL
- MIC [4]: 0.25 µg/mL
- MIC [5]: 0.12 µg/mL

Test System: Neisseria gonorrhoeae isolate 391 (blaTEM plasmid: no, gyrA: Phe91, Ala 95, mtrR promoter: wild type, parC: wild type, penA: ins345Asp, ponA: Pro421, porB: wild type, rpsJ: Met57, tetM plasmid: no)
- MIC [1]: 0.5 µg/mL
- MIC [2]: 0.004 µg/mL
- MIC [3]: 16 µg/mL
- MIC [4]: 0.06 µg/mL
- MIC [5]: 2 µg/mL

MIC of clinical N. gonorrhoeae isolates (2015-2017) by agar dilution on GC agar with 1% IsoVitaleX (ranges not stated); higher = less susceptible. No active / inactive call per row; the paper counts benzylpenicillin above 1 and ceftriaxone above 0.125 mg/L as resistant (EUCAST). The method is stated for benzylpenicillin and ceftriaxone and assumed for the other drugs. '<=' is inferred from pile-ups at the end values. Isolates are numbered anew.
